The supplement of paper PMC12217912
The other results are listed elsewhere or left out. The full chains were built here from the parent and the listed change. Inactive controls read about 0.05.

B1: TEV protease; numbered along this chain (parent)
chain: MGESLFKGPRDYNPISSSICHLTNESDGHTTSLYGIGFGPFIITNKHLFRRNNGTLVVQSLHGVFKVKDTTTLQQHLVDGRDMIIIRMPKDFPPFPQKLKFREPQREERICLVTTNFQTKSMSSMVSDTSCTFPSGDGIFWKHWIQTKDGQCGSPLVSTRDGFIVGIHSASNFTNTNNYFTSVPKNFMELLTNQEAQQWVSGWRLNADSVLWGGHKVFMVKPEEPFQPVKEATQL

Variants of: B1
Assay: raw area under fraction-flipped curve 0-4 h after induction (AUC4h, not background-subtracted), DNA-recorder readout of cleavage of the substrate (dimensionless); higher = more cleavage of the substrate by the protease variant
Settings: temperature: 34 °C; time window: 0-4 h after rhamnose induction
Method: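 In vivo DNA recorder in E. coli TOP10(DE3) ΔrhaA at 34 °C. Each TEVp single-site mutant (parent TEVp 0) is paired with a single-site variant of the 7-mer TEVs (canonical ENLYFQ|S). The substrate sits between flexible linkers in a Bxb1-sfGFP-TEVs-SsrA fusion, so cleavage stabilises Bxb1 and speeds flipping of a recombination array, read by NGS. The value is the raw area under the fraction-flipped curve over 0-4 h after rhamnose induction (AUC4h), with ≥20 reads per time point. It is not background-subtracted; inactive controls average about 0.047.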
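Also: Bxb1 expression induced with 0.2% (w/v) L-rhamnose at OD600 near 0.5, cultures sampled hourly, flipped fraction per protease–substrate barcode pair counted by paired-end Illumina sequencing.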

| Variant | area with substrate EALYFQS | area with substrate ECLYFQS | area with substrate EGLYFQS | area with substrate EILYFQS | area with substrate EKLYFQS | area with substrate ELLYFQS | area with substrate EMLYFQS | area with substrate EQLYFQS | area with substrate ERLYFQS | area with substrate ESLYFQS | area with substrate ETLYFQS | area with substrate EVLYFQS | area with substrate EYLYFQS | area with substrate EDLYFQS | area with substrate EHLYFQS | area with substrate EPLYFQS | area with substrate EELYFQS | area with substrate EFLYFQS | area with substrate EWLYFQS |
| --- | --- | --- | --- | --- | --- | --- | --- | --- | --- | --- | --- | --- | --- | --- | --- | --- | --- | --- | --- |
| T192E | 0.167 | 0.0932 | 0.109 | 0.0841 | 0.075 | 0.0861 | 0.108 | 0.108 | 0.0932 | 0.11 | 0.118 | 0.0971 | 0.0998 |  |  |  |  |  |  |
| G8P | 0.0819 | 0.109 | 0.118 |  | 0.131 | 0.1 |  | 0.107 | 0.0948 | 0.138 |  |  |  | 0.138 | 0.0829 | 0.118 |  |  |  |
| V64C | 0.0981 | 0.125 |  | 0.0941 | 0.104 | 0.0826 | 0.13 | 0.113 | 0.136 | 0.113 | 0.113 | 0.114 | 0.117 | 0.122 | 0.116 | 0.122 | 0.107 | 0.0979 | 0.0764 |
| P96Y | 0.143 | 0.122 |  | 0.0605 |  |  |  |  | 0.119 | 0.143 |  |  | 0.15 |  |  |  |  |  |  |
| T72V | 0.068 | 0.12 | 0.095 |  | 0.0765 |  | 0.136 | 0.107 |  | 0.0851 | 0.0878 | 0.0744 | 0.144 | 0.115 | 0.106 | 0.113 | 0.0605 |  | 0.0753 |
| Q105F | 0.112 | 0.109 |  |  | 0.0776 | 0.0784 | 0.144 | 0.122 | 0.0822 | 0.0875 |  | 0.084 |  | 0.118 | 0.113 | 0.0748 | 0.108 | 0.0871 | 0.0862 |
| Q105W | 0.125 | 0.0968 | 0.0795 | 0.0772 | 0.091 | 0.0663 | 0.0949 |  | 0.108 | 0.102 | 0.133 | 0.0847 | 0.126 | 0.0964 |  | 0.111 | 0.125 | 0.104 | 0.0785 |
| L5E | 0.17 | 0.107 | 0.0942 | 0.0875 | 0.11 | 0.0895 |  | 0.114 | 0.117 | 0.0451 | 0.111 | 0.098 |  | 0.169 |  |  | 0.14 | 0.136 | 0.133 |
| S16R | 0.144 | 0.116 | 0.103 | 0.0976 | 0.128 | 0.0919 |  | 0.136 | 0.112 | 0.116 | 0.117 | 0.0722 |  | 0.141 | 0.123 | 0.113 |  |  | 0.0982 |
| N13V | 0.093 | 0.104 | 0.0968 | 0.0907 | 0.153 | 0.0934 | 0.111 | 0.129 | 0.104 | 0.0957 | 0.126 | 0.1 | 0.102 | 0.12 | 0.103 | 0.0949 | 0.118 | 0.0843 | 0.0791 |
| H168I | 0.055 | 0.0572 | 0.0687 | 0.0565 |  | 0.0582 | 0.0562 | 0.0583 | 0.0617 | 0.0601 | 0.0607 | 0.0592 | 0.0569 | 0.0653 | 0.0741 | 0.0919 | 0.0553 |  | 0.0475 |
| D208K | 0.0873 |  | 0.0498 |  |  |  | 0.0822 | 0.0921 | 0.0677 |  |  | 0.0645 |  |  |  |  |  |  |  |
| K216F | 0.0881 |  |  | 0.0628 | 0.0972 | 0.0937 | 0.0963 | 0.0977 | 0.0876 | 0.0893 |  |  |  | 0.09 |  |  | 0.0843 |  |  |
| K216H | 0.124 | 0.0778 | 0.0798 | 0.0812 | 0.109 |  | 0.155 | 0.116 | 0.124 | 0.102 |  | 0.0927 |  | 0.125 |  |  | 0.107 | 0.11 | 0.0712 |
| D11W | 0.114 | 0.0995 | 0.0991 | 0.103 | 0.0978 | 0.104 | 0.104 | 0.0989 | 0.07 | 0.0812 | 0.145 | 0.105 | 0.108 | 0.136 | 0.0777 | 0.113 | 0.136 | 0.11 | 0.0776 |
| T44F | 0.0494 | 0.0671 | 0.0566 | 0.0402 | 0.0571 |  | 0.0552 | 0.0688 | 0.058 | 0.064 | 0.03 | 0.0518 | 0.0466 | 0.074 | 0.0618 | 0.0426 | 0.0682 | 0.0503 |  |
| K120Y | 0.0955 |  |  | 0.0857 |  | 0.0973 | 0.101 | 0.105 | 0.114 | 0.0912 | 0.103 | 0.0819 | 0.0948 |  | 0.1 | 0.156 | 0.0964 | 0.0924 |  |
| T176F | 0.0964 | 0.0592 |  |  | 0.0558 |  |  | 0.0743 |  |  |  | 0.0762 |  | 0.0669 | 0.0677 |  |  |  | 0.0712 |
| T176C | 0.0826 |  |  |  | 0.088 | 0.0653 |  |  |  |  |  | 0.0704 |  |  |  |  |  | 0.0582 | 0.078 |
| K221R | 0.114 | 0.0978 | 0.112 | 0.0854 | 0.12 | 0.0885 | 0.113 | 0.135 | 0.0989 | 0.0997 |  | 0.0878 | 0.0979 | 0.114 | 0.0982 |  | 0.119 | 0.0904 | 0.0988 |
| D161V | 0.032 | 0.0521 | 0.0629 | 0.0366 | 0.0582 | 0.0585 | 0.0415 | 0.0525 | 0.0596 | 0.0524 | 0.0629 | 0.0579 | 0.0545 | 0.0602 |  |  | 0.0522 | 0.0544 | 0.0514 |
| V220R | 0.118 | 0.107 | 0.111 | 0.0738 | 0.106 |  | 0.103 | 0.126 | 0.101 | 0.118 | 0.104 | 0.0943 |  | 0.146 | 0.0715 |  | 0.111 | 0.0977 | 0.0993 |
| L48I | 0.0931 | 0.0746 | 0.0769 | 0.0695 | 0.0996 |  | 0.0954 | 0.0934 | 0.0858 | 0.0803 |  |  | 0.0988 | 0.106 | 0.0811 | 0.109 | 0.0758 | 0.0897 | 0.08 |
| L48Q | 0.0379 | 0.0617 | 0.0461 | 0.054 | 0.0545 | 0.0669 | 0.0545 |  | 0.0582 | 0.074 | 0.0546 | 0.0616 |  | 0.0401 |  | 0.0566 | 0.0587 | 0.0489 |  |
| N24C | 0.105 | 0.0697 | 0.0717 | 0.0732 | 0.0881 | 0.0767 |  | 0.0989 | 0.0702 | 0.0779 | 0.0769 | 0.0556 | 0.0778 | 0.0804 | 0.0796 | 0.0919 | 0.0961 |  | 0.025 |
